From PubChem BioAssay AID588855 (National Center for Advancing Translational Sciences (NCATS), 2011)
Hit rate of the full screen: of about 410,000 compounds, about 5,000 (1.2%) were called active. Inconclusive results, whose numbers are uncertain, are shown with a selection of clear calls. The call rests on the fitted dose curve; in most records, active means well fitted inhibition curve with a large enough effect; inconclusive means small, poorly fitted or top-dose-only effect; inactive means no such curve, though single readings can be large or run the other way. Potencies beside an inconclusive call are fits to weak or partial responses and may not hold up.

test: qHTS for Inhibitors of TGF-b; details: HepG2 CAGA-GFP TGF-b/SMAD3 reporter, GFP fluorescence, 18 h, TGF-beta stimulated, 500 pg/mL final; series mostly up to 46.1 µM; further: nearly all actives have a fitted effect of over 65% in size
Summary of the method: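 HEPG2 CAGA-GFP reporter cells (1000/well, DMEM with 1% FBS) received compounds, then recombinant TGF-beta at 500 pg/mL final for 18 hours at 37 degrees C. Per-cell GFP summed per well was normalised to unstimulated and stimulated DMSO controls before curve fitting.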
Potency means the concentration at half of the fitted maximal effect; tags describe the fitted curve by direction and shape.

Row | Compound | Potency
1 | COc1cc(OC)c(NC(=O)C(C)n2nc(-c3ccc(C)c(C)c3)ccc2=O)cc1Cl (stereo not drawn) | inconclusive: 1.41 µM [inhibitor, partial curve, poor fit]
2 | COc1cccc(NC(=O)CSc2nnc(NC(=O)NC3CCCCC3)s2)c1 | inconclusive: 35.5 µM [inhibitor, single point]
3 | COc1ccccc1N1CCN(C(=O)CCc2nnc3ccc(N4CCOCC4)nn23)CC1 | inactive
4 | COc1c(C)cc(C(O)c2ncc(-c3ccccc3C(F)(F)F)[nH]2)cc1C (stereo not drawn) | inactive
5 | Cc1nc(C(F)(F)F)c(C(=O)N=CN(C)C)s1 | inactive
6 | CCCn1c(CC)nc([N+](=O)[O-])c1Sc1ncn[nH]1 | inconclusive: 35.5 µM [inhibitor, single point]
7 | Clc1ccc(C(c2cccs2)N2CCNCC2)cc1 (stereo not drawn) | inactive
8 | O=C(CCc1nnc(Cc2c[nH]c3ccccc23)o1)NCC1CC12CCCCC2 (stereo not drawn) | inactive
9 | Cc1ccc(N(C)C(=O)c2noc3c2CCCCC3)cc1C | inconclusive: 11.2 µM [inhibitor, partial curve, poor fit]
10 | Cc1ccc(-c2ncccc2OC(=O)C23CC4CC(CC(C4)C2)C3)cc1 | inconclusive: 2.82 µM [inhibitor, single point]
11 | O=C(COC(=O)Cc1ccc(-c2ccccc2)cc1)NCc1ccc(F)cc1 | inactive
12 | Cc1ccc([C@@H]2CC=C(C(=O)O)[C@H](c3ccc(Cl)cc3)N2S(=O)(=O)c2ccccc2C)cc1 | inconclusive: 35.5 µM [inhibitor, single point]
13 | Fc1ccc(CNc2ccc(N3CCN(Cc4ccccc4)CC3)cc2)cc1 | inactive
14 | CCCN(CCC)C(=O)c1ccc2c(c1)N(CC)C(=O)c1ccccc1S2(=O)=O | inactive
15 | Cc1ccc(S(=O)(=O)C2(C(=O)N3CCN(c4ccccc4F)CC3)CC2)cc1 | inactive
16 | CCOC(=O)N1CCN(C(=O)c2cnn(-c3cccc(C)c3)c2-n2cccc2)CC1 | inactive
17 | COc1ccc(-c2cc(NC=O)c3ncc(-c4cccc(C(=O)NCCN(C)C)c4)n3c2)c(OC)c1 | inconclusive: 25.1 µM [inhibitor, single point]
18 | O=C1OCCN1C(=O)[C@H]1[C@H](c2ccc(Cl)cc2)C(c2ccccc2)=NN1c1ccc(Br)cc1 | inconclusive: 14.1 µM [inhibitor, single point]
19 | COc1ccc(CCNC(=S)Nc2ccc(C(C)C)cc2)cc1 | active: 15.8 µM
20 | O=C(C1CCCCC1)N1C[C@H](n2cc(-c3ccc(F)cc3)nn2)[C@@H](O)C[C@@H]1c1ccc(Cl)cc1 | inconclusive: 17.8 µM [inhibitor, single point]
21 | Fc1ccc(/C=C/c2ccc3ccccc3n2)cc1 | inconclusive: 12.6 µM [inhibitor, single point]
22 | Cc1cccc(NC(=O)/C(C#N)=C/c2cccc([N+](=O)[O-])c2)n1 | inconclusive: 35.5 µM [inhibitor, single point]
23 | C#Cc1ccc(NC(=O)C2(C)CCN2C(=O)C2(c3ccccc3)CCCC2)cc1 (stereo not drawn) | inconclusive: 15.8 µM [inhibitor, single point]

Row | Compound | Potency
24 | Cc1nnc(N2CCC(C(=O)NCc3cccc(Cl)c3)CC2)c2nn(-c3ccccc3)c(C)c12 | active: 11.2 µM
25 | CCc1ccccc1N1CC(c2nc3ccccc3n2CCC2CCCCC2)CC1=O (stereo not drawn) | inconclusive: 12.6 µM [inhibitor, partial curve, poor fit]
26 | O=[N+]([O-])/C=C\c1ccc(N2CCOCC2)cc1 | inconclusive: 35.5 µM [inhibitor, single point]
27 | O=C(NCc1nnc(SCc2ccc(F)cc2)n1-c1ccc(F)cc1)C12CC3CC(CC(C3)C1)C2 | active: 15.8 µM
28 | COc1ccccc1-c1cc2nc(C)c(CCC(=O)NC(C)CCc3ccco3)c(C)n2n1 (stereo not drawn) | inconclusive: 35.5 µM [inhibitor, single point]
29 | O=C(Nc1cccc(Cl)c1)C1=Cc2cc(Cl)ccc2OC1 | inconclusive: 35.5 µM [inhibitor, single point]
30 | O=C(c1cccc(N2C(=O)C3C4C=CC(C4)C3C2=O)c1)N1CCN(c2ccccc2Cl)CC1 (stereo not drawn) | inconclusive: 22.4 µM [inhibitor, single point]
31 | Cc1ccc(S(=O)(=O)N(CCC(=O)Nc2ccc(OC(F)(F)F)cc2)c2ccccc2)cc1 | inconclusive: 35.5 µM [inhibitor, single point]
32 | CCCCCCN1C[C@@H](n2cc(C3CC3)nn2)[C@H](O)C[C@@H]1c1ccc(OC)cc1 | inconclusive: 35.5 µM [inhibitor, single point]
33 | Cc1ccc(-n2nc(C)c(C(=O)NCCCN3CCN(c4ccccc4F)CC3)c2-n2cccc2)cc1 | inconclusive: 12.6 µM [inhibitor, single point]
34 | O=C(Nc1ccccc1)C1=C[C@@H](c2ccc(C(F)(F)F)cc2)C[C@@H](OCCCCO)O1 | inconclusive: 12.6 µM [inhibitor, partial curve, poor fit]
35 | CC(=O)c1c(C)[nH]c(C(=O)OCc2ccc(Br)cc2)c1C | inconclusive: 12.6 µM [inhibitor, single point]
36 | O=C(NC(=S)NCc1ccco1)c1ccccc1 | inactive
37 | O=C(c1ccc(Cl)c([N+](=O)[O-])c1)N(Cc1ccc(Cl)cc1)C1CCS(=O)(=O)C1 (stereo not drawn) | inconclusive: 35.5 µM [inhibitor, single point]
38 | O=C(c1ccc(Cl)cc1)N1CCN(S(=O)(=O)/C=C/c2ccccc2)CC1 | inconclusive: 28.2 µM [inhibitor, single point]
39 | Cc1cccc(N2C(=O)SC(N(CC(=O)O)c3cccc(C)c3)C2=O)c1 (stereo not drawn) | inconclusive: 5.62 µM [inhibitor, single point]
40 | CCOc1ccc(NC(=O)COc2cccc3c2CCN(Cc2cccnc2)C3=O)cc1 | inactive
41 | COC(=O)C1CC(c2ccc(Cl)cc2)=NO1 (stereo not drawn) | inactive
42 | O=C(OCC(O)C(O)COC(=O)c1ccccc1)c1ccccc1 (stereo not drawn) | inconclusive: 35.5 µM [inhibitor, single point]
43 | Cc1ccc(C2=NN(C(=O)CCC(=O)O)C(c3cn(-c4ccccc4)nc3-c3ccc(C)cc3)C2)cc1 (stereo not drawn) | inactive
44 | CCCC[C@@H]1CCCO[C@@](C(=O)NCc2ccc(S(C)(=O)=O)cc2)(C(F)(F)F)C1 | inconclusive: 17.8 µM [inhibitor, single point]
45 | COc1ccc(CCNC(=O)C2CCC(=O)N2Cc2ccccc2Cl)cc1OC (stereo not drawn) | inactive
46 | CC(=O)c1c(C)[nH]c(C(=O)Nc2nc(C)cs2)c1C | inactive

Row | Compound | Potency
47 | CCCCn1cc(S(=O)(=O)c2ccccc2)c(=O)c2cc(C)ccc21 | inactive
48 | CCOC(=O)C1=C(CS(=O)(=O)c2ccc(F)c(C)c2)NC(=O)NC1c1ccc(F)c(F)c1 (stereo not drawn) | inconclusive: 0.316 µM [inhibitor, full curve, poor fit]
49 | CCN(c1ccccc1)S(=O)(=O)c1ccc(OC)c(NC(=O)Cc2ccccc2OC)c1 | inactive
50 | CCOC(=O)[C@@H]1[C@H]2COc3ccccc3[C@@H]2N2C(=O)N(c3cccc(C)c3)C(=O)[C@@]12C | inconclusive: 35.5 µM [inhibitor, single point]
51 | O=C1CC(=O)Nc2cc(S(=O)(=O)Nc3cccc(Br)c3)ccc2N1 | inactive
52 | COc1cc(C(C)=NNC(=O)c2ccncc2)ccc1O | inactive
53 | Cc1ccc(CCNC(=O)c2ccc(CNS(=O)(=O)c3ccc(F)cc3)cc2)cc1 | inconclusive: 1.26 µM [inhibitor, partial curve, poor fit]
54 | O=C(c1cccc(S(=O)(=O)N2CCc3ccccc32)c1)N1CCCC(C(F)(F)F)C1 (stereo not drawn) | inconclusive: 10 µM [inhibitor, partial curve, poor fit]
55 | Cc1ccc(NC(=O)c2nc[nH]c2C(=O)N[C@@H](CCCCNC(=O)OC(C)(C)C)C(=O)OC(C)(C)C)cc1 | inconclusive: 31.6 µM [inhibitor, partial curve, poor fit]
56 | COCCn1c(=S)[nH]c2cc(C(=O)N(CCO)Cc3ccccc3)ccc2c1=O | inactive
57 | CC(=O)Nc1nc(C)c(-c2csc(Nc3cccc([N+](=O)[O-])c3)n2)s1 | inconclusive: 0.794 µM [inhibitor, full curve]
58 | Cc1ccc(C)c(NS(=O)(=O)c2ccc3c(c2)CCCN3C(=O)C2CCC2)c1 | inconclusive: 35.5 µM [inhibitor, single point]
59 | O=C(NCc1ccccc1F)C(=O)NCC(c1ccco1)S(=O)(=O)c1ccccc1 (stereo not drawn) | inactive
60 | CCOc1ccc(NC(=S)NCc2ccc3[nH]c(C)cc3c2)cc1 | inconclusive: 12.6 µM [inhibitor, single point]
61 | CSc1ncc(C(=O)NCc2cccc(Br)c2)c(-c2ccccc2)n1 | inactive
62 | S=c1[nH]nc(-c2cc(-c3ccccc3)n[nH]2)n1/N=C/c1cccc(Cl)c1 | inactive
63 | CN(C(=O)COC(=O)c1c2c(nc3ccccc13)CCCC2)c1c(N)n(Cc2ccccc2)c(=O)[nH]c1=O | inactive
64 | CC(Sc1ncnc2ccccc12)C(=O)Nc1ccc2c(c1)OCCO2 (stereo not drawn) | inconclusive: 7.08 µM [inhibitor, partial curve, poor fit]
65 | COC(=O)c1sccc1NC(=O)c1ccccc1[N+](=O)[O-] | inconclusive: 15.8 µM [inhibitor, partial curve, poor fit]
66 | O=[N+]([O-])c1ccc(S(=O)(=O)c2ccccc2)nc1 | active: 2.51 µM
67 | CCOc1ccc2[nH]c(=O)c(CN(CCN3CCCC3)C(=S)Nc3ccccc3OCC)cc2c1 | active: 15.8 µM
68 | COC(=O)c1ccc(OCC(O)CN2CCc3cc(OC)c(OC)cc3C2c2ccccc2)cc1 (stereo not drawn) | inconclusive: 35.5 µM [inhibitor, single point]
